# Publication PMC6152936 (Cell reports, 2018)
# B1: TFG N terminus ([…]), wild type (domain or fragment)
# chain: not shown
# Target: the molecule itself
# Test: negative-stain single-particle electron microscopy
protein,measurement,value
B1,binding result,binds
